Data published in PubChem BioAssay AID686971 (National Center for Advancing Translational Sciences (NCATS), 2013).
The campaign covered roughly 360,000 compounds. About 7,500 (2.1%) were called active. This list was built around the results that the source calls inconclusive (neither active nor inactive); the mix of calls is not that of the screen. Calls come from the whole dose curve; as a rule, active = well fitted cell-killing curve with a large enough effect; inconclusive = small, poorly fitted or top-dose-only effect, or effect the other way, or another doubt; inactive = no such curve, though single readings can be large or run the other way. No potency is given beside an inconclusive call; the fits are too rough.

Assay: qHTS for induction of synthetic lethality in tumor cells producing 2HG: qHTS for the HT-1080-IDH1KD cell line;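 for activity, negative = toxicity: 0% = DMSO wells and -100% = cell-free medium wells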
Settings: HT-1080 IDH1 knockdown viability, ATP luminescence, 48 h; activity, negative = toxicity: at 46.1 µM (top of the series) unless noted
In short: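 Knockdown cells (IDH1KD HT-1080) received compounds 2 h after plating at 750 cells/well and were kept 48 h at 37 °C in 5% FBS RPMI. A CellTiter-Glo luminescence read gave % activity for curve fitting.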
Potency is the fitted concentration of half-maximal effect; tags give direction and shape of the fitted curve.

Structure (SMILES)	Potency	activity, negative = toxicity
Cc1ccc(/C=C2/NC(=O)N(Cc3ccc(Br)cc3)C2=O)o1	inactive	
Cc1cc(C)c2ccc(/C=N/O)nc2c1O	inconclusive [cytotoxic, single point]	
CN1C=C/C(=C\c2cc[n+](C)c3ccccc23)c2ccccc21	active: 6.51 µM	
CCCc1ccc(S(=O)(=O)N2CCN(C(=O)CN3C(=O)NC(C)(C4CC4)C3=O)CC2)cc1 (stereo unspecified)	inactive	
O=C(c1cc2ccccc2o1)N1CCN(c2ccccn2)CC1	inactive	
CN(C)CCOC1c2ccccc2CCc2ccc3ccccc3c21 (stereo unspecified)	active: 16.4 µM	
O=C(c1cc2cc(F)ccc2[nH]1)N(Cc1cccnc1)CC1CCCN(C2CCCCC2)C1 (stereo unspecified)	inconclusive [cytotoxic, single point]	
COC(=O)Cn1cc(S(=O)(=O)NCc2ccc(C)cc2)c2cc([N+](=O)[O-])ccc21	inactive	
CCN1CCN(CCCNC(=O)c2ccc(/C=C3/Oc4ccccc4N(Cc4cccc(C)c4)C3=O)cc2)CC1	inactive	
O=[N+]([O-])c1cnccc1-n1nnc2ccccc21	inconclusive [cytotoxic, partial curve]	
CN1c2ccc([N+](=O)[O-])cc2N(C)C1(C)c1ccccc1 (stereo unspecified)	inconclusive [cytotoxic, single point]	
O=C(COc1ccccc1Cl)Nc1ccc2[nH]c(=O)[nH]c2c1	inactive	
O=C(N/N=C/C(Br)=C/c1ccccc1)c1ccccc1F	inconclusive [cytotoxic, single point]	
COc1ccc(CN2CCN(Cc3cc(=O)oc4cc(C)ccc34)CC2)c(OC)c1OC	inconclusive [cytotoxic, partial curve, poor fit]	
COc1ccc(NC(=O)C2Cc3c(-c4cccc(C(N)=O)c4)ccnc3O2)cc1OC (stereo unspecified)	inconclusive [cytotoxic, partial curve]	
Cc1cc(OCC(=O)NCc2cccnc2)ccc1[N+](=O)[O-]	inactive	
O=C(N/C(=C\c1cccc(Br)c1)C(=O)N1CCCCC1)c1ccco1	inactive	
CNc1oc(-c2ccccc2Cl)nc1P(=O)(c1ccccc1)c1ccccc1	inconclusive [cytotoxic, single point]	
CN(C)c1ccc(NC(=O)CSc2nc(N)c(C(=O)Nc3ccc(N(C)C)cc3)s2)cc1	inconclusive [cytotoxic, partial curve]	
CC(C)=CC(=O)OCC(=O)Nc1ccc(Cl)cc1	inconclusive [cytotoxic, single point]	
CC(=O)N(C(C)=O)N1C(=O)c2cccc3c(N4CCOCC4)ccc(c23)C1=O	inactive	
N#Cc1ccc(OCC(=O)N/N=C2/CC(c3ccccc3)Oc3ccccc32)cc1 (stereo unspecified)	inactive	
Cc1ccc(C(=O)N2NC(c3ccc(F)cc3)C3C(=O)N(c4ccc(C)cc4)C(=O)C32)cc1 (stereo unspecified)		inconclusive: -8.92% [cytotoxic]
CCCCC(=O)OC1CCC2C3CCc4cc(O)ccc4C3CCC12C (stereo unspecified)	inconclusive [cytotoxic, single point]	
COc1cc(NC(=O)Nc2nc(C(N)C3CCCCC3)cs2)cc(OC)c1OC (stereo unspecified)	active: 20.6 µM	
Cn1c(-c2ccc3c(c2)OCO3)cnc1NCc1cccc(O)c1	inconclusive [cytotoxic, single point]	

Structure (SMILES)	Potency	activity, negative = toxicity
COc1ccc(OCc2cccc(C(=O)Nc3cc(C)on3)c2)cc1	inconclusive [cytotoxic, single point]	
COc1cc(CC(=O)Nc2sc3c(c2C(N)=O)CCCC3)cc(OC)c1OC		inconclusive: -17.6% [cytotoxic]
COc1cc2c(cc1OC)/C(=C/c1ccc(Cl)cc1)C(=O)OC2	inconclusive [cytotoxic, single point]	
Clc1ccccc1SCc1nc2ccccc2[nH]1	inconclusive [cytotoxic, single point]	
CCOCCC(=O)Nc1cc(Cl)ccc1OC	inactive	
COc1ccc(-c2cc(C(F)(F)F)n3nc(C(=O)Nc4cc(C)on4)cc3n2)cc1OC	inactive	
C=CCNC(=O)c1onc(CSc2ccc(C)c(C)c2)c1C(=O)O		inconclusive: -30.4% [cytotoxic]
CCOc1cc(C(=O)Nc2ccc(N3CCOCC3)cc2)cc(Br)c1OC	inconclusive [cytotoxic, partial curve]	
CCCc1ccc(C(O)c2ncc(-c3cccc(C)c3)[nH]2)cc1 (stereo unspecified)	inconclusive [cytotoxic, single point]	
O=c1c2cc3ccccc3n2cnn1Cc1ccccc1F	inconclusive [cytotoxic, single point]	
CCc1ccc(NC(=O)CSc2nncn2-c2cccnc2)cc1	inactive	
COCCn1c(SCC(=O)c2ccc3c(c2)OCCO3)nnc1-c1ccoc1C	inactive	
COc1ccc(Nc2ncc(C(=O)O)c3ccccc23)cc1	inactive	
Cc1ccc2[nH]c(-c3cccc(F)c3)cc(=O)c2c1	active: 1.46 µM	
O=C1OC(c2ccc(Cl)cc2)/C(=C(/O)c2ccccc2)C1=O (stereo unspecified)	inactive	
CCOC(=O)[C@]12CCCC=C1N(Cc1ccc(Cl)cc1Cl)C(=O)[C@H](CC(=O)NCc1ccc(C)o1)C2	inconclusive [cytotoxic, single point]	
Cc1ccc(S(=O)(=O)Nc2ccc3c(c2)C(=O)c2ccccc2-3)cc1	inconclusive [cytotoxic, single point]	
Cn1c(CNc2ccc(F)cc2)nc2ccccc21	inconclusive [cytotoxic, single point]	
CCOC(=O)COc1cccc2c(=O)n(CC(=O)NCc3ccc4c(c3)OCO4)ccc12	inconclusive [cytotoxic, full curve]	
CCOC(=O)Nc1ccc2c(c1)N(C(=O)CN(C)C)c1ccccc1CC2	inactive	
Cc1cc(C)cc(NC(=O)C2CCCCN2S(=O)(=O)c2ccccc2)c1 (stereo unspecified)	inactive	
O=[N+]([O-])c1cccc(N/N=C/c2cc([N+](=O)[O-])ccc2O)c1	active: 14.6 µM	
COc1ccc(C(c2nnnn2Cc2ccccc2)N2CCN(C/C=C/c3ccccc3)CC2)cc1 (stereo unspecified)	inconclusive [cytotoxic, single point]	
COc1ccc(C2c3ccc4ccccc4c3Oc3ncn(Cc4ccco4)c(=N)c32)cc1OC (stereo unspecified)	active: 20.6 µM	
CCCCN(CC)CCCNC(=O)C1CCN(c2ncnc3c2sc2cccc(F)c23)CC1	active: 20.6 µM	
O=C(CCS(=O)(=O)c1ccc(Br)cc1)N1CCN(c2ccc(F)cc2)CC1	inactive	

Structure (SMILES)	Potency	activity, negative = toxicity
CC(C)(C)c1cc(C(=O)Nc2ccc(F)cc2)n(Cc2ccc(F)cc2)n1	inconclusive [cytotoxic, single point]	
O=C(O)CN=C(Nc1cc(Cl)cc(Cl)c1)NC(c1ccccc1)c1ccccc1	inconclusive [cytotoxic, single point]	
COc1cccc(OC)c1OC(=O)c1cnccn1		inconclusive: 3.56% [cytotoxic]
Cc1cc(=O)[nH]c(SCC(=O)Nc2ccc(Br)cc2)c1C#N	inconclusive [cytotoxic, partial curve]	
CC(Nc1ccc(Cl)cc1)c1cc(Cl)ccc1O (stereo unspecified)	inconclusive [cytotoxic, single point]	
O=C(O)Cc1ccc(C(=O)c2ccccc2)s1	inactive	
Cc1ccc(Cl)cc1N1CCN(Cc2nc3c(c(=O)[nH]c(=O)n3C)n2Cc2ccccc2F)CC1	inconclusive [cytotoxic, single point]	
Cc1ccc2cc(NC(=O)c3ccc(C(C)(C)C)cc3)ccc2n1	inconclusive [cytotoxic, single point]	
O=c1cnnc(N/N=C/c2ccccn2)[nH]1	active: 1.3 µM	
C=CCc1cccc(/C=N/NC(=O)C[n+]2ccccc2)c1O	inconclusive [cytotoxic, partial curve]	
O=S(=O)(Nc1c(S(=O)(=O)c2ccccc2)c2nc3ccccc3nc2n1C1CCCCC1)c1ccccc1	active: 16.4 µM	
Cc1ccc(OCc2ccc(C(=O)Nc3cc(C)on3)o2)c([N+](=O)[O-])c1	inconclusive [cytotoxic, single point]	
CC(=O)Nc1cc(-c2cccc(C(=O)NCCN(C)C)c2)cn2c(-c3cccc(C(F)(F)F)c3)cnc12	active: 20.6 µM	
CCOC(=O)CSC1=C(C#N)C(c2ccc(C)o2)CC(=O)N1 (stereo unspecified)	active: 0.58 µM	
CN(C)c1ccc(C=C2SC(=S)NC2=O)cc1	inactive	
O=C1CC(c2cc(Br)ccc2F)c2cc3c(cc2N1)CCC3 (stereo unspecified)	active: 1.26 µM	
O=S(=O)(c1ccc(NC(=S)NCc2ccncc2)cc1)N1CCCCC1	inconclusive [cytotoxic, single point]	
O=C(CC[C@H]1O[C@@H](n2ccc(=O)[nH]c2=O)[C@H](O)[C@@H]1O)NCCc1c[nH]c2ccccc12	inactive	
Cc1ccc(-n2c(C)cc3c2CC(C)(C)CC3=O)cc1C	inactive	
O=C(C1CCN(S(=O)(=O)N2CCOCC2)CC1)N1CCOCC1		inconclusive: -3.54% [cytotoxic]
CSc1cccc(NC(=S)N2CCC(N(C)C3CCCCC3C)CC2)c1 (stereo unspecified)	inactive	
O=C(COc1cccc2ccccc12)Nc1nc2ccccc2[nH]1	inconclusive [cytotoxic, single point]	
c1ccc(Cc2nnc(-c3ccccc3)o2)cc1	inconclusive [cytotoxic, single point]	
Cc1ccc(Cn2nnc3c(=O)n(CC(=O)NCc4ccccc4)cnc32)cc1	inconclusive [cytotoxic, single point]	
